From PubChem BioAssay AID686970 (National Center for Advancing Translational Sciences (NCATS), 2013)
Screen size: about 360,000 compounds; about 6,000 (1.7%) were called active. The shares of active, inactive and inconclusive entries below differ from those in the screen. Calls follow the shape of the dose curve; as a rule, active = well fitted cell-killing curve with a large enough effect; inconclusive = small, poorly fitted or top-dose-only effect, or effect the other way; inactive = flat fitted curve, though single readings scatter. Potencies of inconclusive entries are left out as doubtful fits.

Test: qHTS for induction of synthetic lethality in tumor cells producing 2HG: qHTS for the HT-1080-NT fibrosarcoma cell line;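 also: NT is the 2HG producing partner of a matched IDH1 knockdown line; nearly all actives have a fitted effect of over 55% in size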;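 as to activity, negative = less viability: 0% = DMSO-treated cells and -100% = media-only wells without cells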
Conditions: HT-1080-NT fibrosarcoma viability, CellTiter-Glo ATP luminescence, 48 h; activity, negative = less viability: at 46.1 µM (top of the series) unless noted
Summary of the method: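 HT-1080-NT fibrosarcoma cells (2HG-overproducing), 750 cells/well in RPMI with 5% FBS, dosed after 2 h and incubated 48 h at 37C. CellTiter-Glo luminescence normalized to DMSO and no-cell wells; concentration-response curves fitted and classed.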
Potency is read from the fitted curve at half-maximal effect; tags tell the direction and shape of the fitted curve.

SMILES	Potency	activity, negative = less viability
O=C(C1CCCCC1)N1C[C@@H](O)[C@H](n2cc(-c3ccc(F)cc3)nn2)C[C@@H]1c1ccc(Cl)cc1	inconclusive [cytotoxic, single point]	
CCOC(=O)N1CCN(S(=O)(=O)c2ccc(C(=O)N(CCCN(C)C)c3nc4ccc(CC)cc4s3)cc2)CC1	inconclusive [cytotoxic, single point]	
CCOC(=O)Cc1csc(NC(=O)Nc2ccc(F)cc2)n1		inactive: -19.6%
COc1ccc(NC(=S)NC(NC(=O)c2cccc(Cl)c2)C(Cl)(Cl)Cl)c([N+](=O)[O-])c1 (stereo not given)	inconclusive [cytotoxic, single point]	
CN1CCN(C(=O)c2cccc(-c3ccc4nncn4c3)c2)CC1		inconclusive: 16%
COc1ccc(C2c3ccc(O)cc3Oc3ncn4nc(-c5cccnc5)nc4c32)cc1OC (stereo not given)	active: 16.4 µM	
CCN1C(=O)/C(=C/N2CCc3ccccc32)SC1=S	inconclusive [rising, partial curve, poor fit]	
NC(=NCc1ccccc1)NN=Cc1ccnc2ccccc12	inconclusive [cytotoxic, single point]	
CC(Oc1ccc(F)cc1Br)c1nc2ccccc2c(=O)[nH]1 (stereo not given)		inactive: -3.2%
COC(=O)C(c1ccccc1)C(C(=O)OC)c1ccccc1 (stereo not given)		inactive: 13.3%
CC(=O)c1cc(-c2ccc(F)cc2)n(CC(=O)NCc2cccs2)c1C	inconclusive [cytotoxic, single point]	
Oc1cc(-c2ccccc2)c2ccccc2c1	inconclusive [cytotoxic, single point]	
O=C(Cc1ccccc1)Nc1ccc(NC(=O)c2cccs2)cc1Cl		inactive: -1.87%
CC(=O)Oc1ccc2ccccc2c1C(NC(=O)C(C)C)c1cccc([N+](=O)[O-])c1 (stereo not given)	inconclusive [cytotoxic, single point]	
CN(C)c1ccc(-c2nc3ccccc3n2C)cc1	inconclusive [cytotoxic, partial curve, poor fit]	
CCc1noc(C)c1C(=O)Nc1nc(-c2ccc(NC(C)=O)cc2)cs1		inactive: 7.97%
Cc1occc1C(=O)Nc1cccc(Cl)c1Cl	inconclusive [rising, single point]	
COc1ccc(NS(=O)(=O)c2ccc3oc(SCc4ccc(F)cc4)nc3c2)cc1	inconclusive [cytotoxic, single point]	
CCOc1ccc(N(C)S(=O)(=O)c2ccc(-c3cc(C)no3)s2)cc1	active: 11.6 µM	
CCCNC(=O)c1cc(C2CCCN(C(=O)c3cc(F)ccc3C)C2)on1 (stereo not given)		inactive: 11%
